Consider 28 molecules from the antibiotic and cytotoxicity screens of Wong et al. (2023).

The other results are listed elsewhere or left out.

The test relates to S. aureus RN4220. The test is described as follows: growth inhibition call (relative growth <= 0.2). The note with it: 50 µM.
As to `C[C@@H]1CN([C@@H](C)CO)C(=O)c2cccc(NC(=O)c3cnccn3)c2O[C@H]1CN(C)S(=O)(=O)c1ccccc1`, the growth inhibition call was “inactive”.

On to `COc1ccc(NC(=O)Nc2ccc3c(c2)CC(=O)N([C@@H](C)CO)C[C@@H](C)[C@H](CN(C)CC2CCCCC2)O3)cc1`, for which the growth inhibition call was “inactive”. To `C[C@@H]1CN([C@@H](C)CO)C(=O)c2cc(NS(=O)(=O)c3cn(C)cn3)ccc2O[C@@H]1CN(C)S(=O)(=O)c1cn(C)cn1` belongs “inactive”. As for `C[C@@H]1CN([C@H](C)CO)C(=O)c2cc(NC(=O)CCCN(C)C)ccc2O[C@@H]1CN(C)S(=O)(=O)c1ccc(F)cc1`, the growth inhibition call is “inactive”. As for `Cc1cc2nc(C(=O)NC[C@H]3CCCS(=O)(=O)C3)cc(-c3ccccc3Cl)c2c(C)c1-c1ccncc1`, the growth inhibition call was “inactive”. For the molecule `C[C@H]1CN([C@@H](C)CO)C(=O)c2cc(Br)cnc2O[C@@H]1CN(C)S(C)(=O)=O`, the growth inhibition call was “inactive”. As to `COC[C@@H](C)Nc1ncnc2nc[nH]c12`, the growth inhibition call was “inactive”. Consider `COc1cccc(NC(=O)N2C[C@@H](O)COC[C@H]3O[C@H](CC(=O)NCCCN4CCOCC4)CC[C@@H]32)c1`, for which the growth inhibition call was “inactive”. Take `COc1c(N2CCNC(C)C2)c(F)cc2c(=O)c(C(=O)O)cn(C3CC3)c12` (stereo not drawn): the growth inhibition call is “active”. As to `COc1ccccc1OCC(O)CN1CCN(CC(=O)Nc2c(C)cccc2C)CC1.Cl.Cl` (stereo not drawn), the growth inhibition call is “inactive”. The value for `C[C@H]1CN([C@@H](C)CO)C(=O)c2cc(NC(=O)Cc3cn(C)c4ccccc34)ccc2O[C@@H]1CN(C)S(=O)(=O)c1cn(C)cn1` was “inactive”. For the molecule `CC(C)CCN1CCc2nnc(CO)n2CC1`, the growth inhibition call was “inactive”. To `COc1ccc(NC(=O)N(C)C[C@@H]2Oc3c(NS(=O)(=O)c4cn(C)cn4)cccc3C(=O)N([C@@H](C)CO)C[C@H]2C)cc1` belongs “inactive”.

As for `C[C@H]1CN([C@@H](C)CO)C(=O)c2cccc(NC(=O)Nc3ccc(F)cc3)c2O[C@@H]1CN(C)Cc1ccc(C(=O)Nc2ccccc2N)cc1`, the growth inhibition call is “inactive”. To `CO[C@@H](CN(C)C(=O)c1ccccc1F)[C@@H](C)CN([C@H](C)CO)S(=O)(=O)c1ccc(Cl)cc1` belongs “inactive”; to `C[C@@H]1CN([C@H](C)CO)C(=O)c2cc(NS(=O)(=O)c3ccc(F)cc3)ccc2O[C@@H](C)CCCCO[C@@H]1CN(C)C(=O)CCC(F)(F)F`, “inactive”; to `COc1ccc(NC(=O)Nc2cccc3c2O[C@H](CN(C)Cc2ccc(Cl)c(Cl)c2)[C@H](C)CN([C@H](C)CO)C3=O)cc1`, “inactive”. As for `C[C@@H]1CCCCO[C@H](CN(C)Cc2ccccc2)[C@@H](C)CN([C@@H](C)CO)C(=O)c2cc(NS(=O)(=O)c3ccccc3)ccc2O1`, the growth inhibition call was “inactive”.

On to `Cc1cc(N)n2ncnc2n1`, for which the growth inhibition call is “inactive”. The value for `Cn1ccnc1CN1CC[C@]2(COCCN(S(C)(=O)=O)C2)C1` was “inactive”; that for `C[C@@H]1CN([C@@H](C)CO)C(=O)c2cc(NC(=O)Nc3cccc4ccccc34)ccc2O[C@@H]1CN(C)C(=O)Nc1ccc(F)cc1` was “inactive”. On to `C[C@@H]1CN([C@H](C)CO)C(=O)c2cc(NC(=O)Nc3cccc4ccccc34)ccc2O[C@H]1CN(C)Cc1ccc(-c2ccccc2)cc1`, for which the growth inhibition call was “inactive”. As to `CCc1ccc(Nc2c3c(nc4ccccc24)CCC3)cc1`, the growth inhibition call is “inactive”. Regarding `Cc1noc(C)c1NC(=O)Nc1ccc2c(c1)C(=O)N([C@@H](C)CO)C[C@H](C)[C@@H](CN(C)Cc1ccncc1)OCCCC[C@H](C)O2`, the growth inhibition call was “inactive”. The value for `C[C@H]1CN([C@@H](C)CO)C(=O)Cc2cc(NC(=O)Nc3cccc4ccccc34)ccc2O[C@H]1CN(C)C(=O)Nc1ccc(C(F)(F)F)cc1` was “inactive”. As for `C[C@@H]1CCCCO[C@H](CN(C)C(=O)Cc2ccccc2)[C@@H](C)CN([C@H](C)CO)C(=O)c2cc(NC(=O)Cc3ccccc3)ccc2O1`, the growth inhibition call was “inactive”. With `C[C@@H]1CCCCO[C@H](CN(C)S(=O)(=O)c2cccs2)[C@@H](C)CN([C@H](C)CO)C(=O)c2cc(NC(=O)Nc3cccc4ccccc34)ccc2O1`, the growth inhibition call is “inactive”. The value for `C[C@H]1CN([C@@H](C)CO)C(=O)CCCn2nncc2CO[C@H]1CN(C)S(=O)(=O)c1cn(C)cn1` was “inactive”.
